Experimental data from PubChem BioAssay AID504339 (National Center for Advancing Translational Sciences (NCATS), 2011).
The campaign covered roughly 390,000 compounds. About 17,000 (4.4%) were called active. Inconclusive means that the source gave no clear call. Such entries were picked first, then a sample of the others. The call rests on the fitted dose curve; in most records, active means well fitted inhibition curve with a large enough effect; inconclusive means small, poorly fitted or top-dose-only effect; inactive means no such curve, though single readings can be large or run the other way. Where the call is inconclusive, the potency comes from a doubtful curve fit. Some compounds were tested as several samples or in several runs, with calls that do not always agree.

Biological target: Lysine-specific demethylase 4A (Homo sapiens) (UniProt O75164)
Experiment: qHTS Assay for Inhibitors of JMJD2A-Tudor Domain; further: nearly all actives have a fitted effect of over 50% in size
Details: AlphaScreen JMJD2A-Tudor / H3K4me3 peptide binding; activity change, negative = inhibition: at 114 µM (top of the series)
On the % scale 0 is the no-effect control and ±100 the full control effect; potency means the concentration at half of the fitted maximal effect; tags describe the fitted curve by direction and shape.

Sequence of UniProt O75164 (O75164 whole entry, looked up, the tested form may be a part): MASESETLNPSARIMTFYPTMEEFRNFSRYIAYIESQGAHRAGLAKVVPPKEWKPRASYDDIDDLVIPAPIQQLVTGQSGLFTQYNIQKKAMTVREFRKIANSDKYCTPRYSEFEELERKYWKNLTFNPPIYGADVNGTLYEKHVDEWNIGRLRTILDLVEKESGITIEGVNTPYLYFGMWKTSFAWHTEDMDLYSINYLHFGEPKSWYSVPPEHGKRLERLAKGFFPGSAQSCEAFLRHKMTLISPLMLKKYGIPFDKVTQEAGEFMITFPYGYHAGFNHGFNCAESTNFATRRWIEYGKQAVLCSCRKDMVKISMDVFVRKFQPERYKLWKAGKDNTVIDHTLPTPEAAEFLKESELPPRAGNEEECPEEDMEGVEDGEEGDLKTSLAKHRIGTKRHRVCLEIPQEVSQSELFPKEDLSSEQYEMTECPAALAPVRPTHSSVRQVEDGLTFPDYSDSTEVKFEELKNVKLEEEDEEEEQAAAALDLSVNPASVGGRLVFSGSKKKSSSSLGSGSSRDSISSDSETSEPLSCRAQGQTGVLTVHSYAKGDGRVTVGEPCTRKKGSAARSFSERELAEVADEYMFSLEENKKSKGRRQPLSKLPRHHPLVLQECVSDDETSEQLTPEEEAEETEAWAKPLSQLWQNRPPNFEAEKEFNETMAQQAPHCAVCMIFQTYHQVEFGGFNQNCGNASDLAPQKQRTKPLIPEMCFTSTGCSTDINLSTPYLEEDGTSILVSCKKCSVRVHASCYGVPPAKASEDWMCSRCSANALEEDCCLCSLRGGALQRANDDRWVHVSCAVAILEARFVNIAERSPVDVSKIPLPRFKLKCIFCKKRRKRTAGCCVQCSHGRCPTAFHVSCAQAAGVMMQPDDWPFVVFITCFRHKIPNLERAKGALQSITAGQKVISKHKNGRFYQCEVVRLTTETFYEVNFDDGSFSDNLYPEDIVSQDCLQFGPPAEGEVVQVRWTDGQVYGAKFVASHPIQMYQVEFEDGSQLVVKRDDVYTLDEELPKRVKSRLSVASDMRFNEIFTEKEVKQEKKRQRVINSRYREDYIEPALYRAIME

Compound | Potency | activity change, negative = inhibition
CCOc1ccc(NC(=S)N(CCc2c(C)[nH]c3ccc(C)cc23)Cc2ccncc2)cc1 | active: 25.1 µM | 
Cc1cccc2cc3c(N)c(C(=O)Nc4ccc(N5CCOCC5)cc4)sc3nc12 |  | inactive: -34.3%
C=CCNC(=S)N/N=C(\C)c1cc(OC)c(OC)c(OC)c1 |  | inactive: -21.1%
CC(C)Cn1c(-c2ccc(F)cc2)n[nH]c1=S | active: 7.94 µM | 
CC(=Nc1ccc(C)cc1)c1sc2ccccc2c1O | inconclusive: 56.2 µM [inhibitor, partial curve] | 
CCN(CC)c1ccc(/C=C2\CCC(/C=C(\C#N)C(=O)Nc3ccccc3F)=C2N2CCOCC2)cc1 | inconclusive: 1.26 µM [inhibitor, full curve, poor fit] | 
COc1ccc(Cn2c(C(=O)O)c(CNCC(C)c3ccccc3)c3ccc(OC)cc32)cc1 (centres undefined) | inconclusive: 56.2 µM [inhibitor, partial curve] | 
Cc1nn(S(=O)(=O)c2cccs2)c(C)c1Sc1ccc([N+](=O)[O-])cc1 | inconclusive: 56.2 µM [inhibitor, partial curve] | 
COc1ccc(/C(C)=N/NC(=O)Cc2ccc(Cl)cc2)cc1 |  | inactive: -6.21%
O=C(O)C1CCN(Cc2oc(CO)cc(=O)c2O)C1 (centres undefined) | inconclusive: 0.631 µM [inhibitor, full curve, poor fit] | 
CC(C)(C)C(=O)NC(=S)NNC(=O)c1sc2ccccc2c1Cl | inconclusive: 50.1 µM [inhibitor, partial curve] | 
CC(C)OP(=O)(OC(C)C)C(O)c1ccc2c(c1)OCO2 (centres undefined) | inconclusive: 89.1 µM [inhibitor, single point] | 
O=C(O)C1C2C=CC(O2)C1C(=O)Nc1ccc(S(=O)(=O)N2CCc3ccccc32)cc1 (centres undefined) |  | inactive: -35%
CCN(CC)CCN(C(=O)c1ccc(C(=O)c2ccccc2)cc1)c1nc2cc3c(cc2s1)OCO3 | inconclusive: 39.8 µM [inhibitor, partial curve] | 
CNc1oc(-c2ccc(C)cc2)nc1P(=O)(c1ccccc1)c1ccccc1 | inconclusive: 56.2 µM [inhibitor, partial curve] | 
O=C(Nc1ccncc1)c1cc(S(=O)(=O)N2CCN(c3ccccc3)CC2)ccc1Cl | inconclusive: 79.4 µM [inhibitor, partial curve] | 
Cc1ccc(CNc2oc(-c3ccco3)nc2C#N)cc1 | inconclusive: 79.4 µM [inhibitor, partial curve] | 
CCN1/C(=C/c2cc[n+](C)cc2)C=Cc2cc(C)ccc21 | inconclusive: 50.1 µM [inhibitor, single point] | 
O=C(CSc1nc(-c2cccc(Cl)c2)nc2cc(=O)[nH]n12)Nc1ccccc1 | inconclusive: 56.2 µM [inhibitor, partial curve] | 
Cn1c(COc2ccc(Cl)cc2)nc2ccccc2c1=O | active: 28.2 µM | 
COc1ccc2c(c1)[C@H]1[C@H](CO2)[C@H](c2ccccc2)[C@]2(C)C(=O)Nc3ccc(F)cc3C(=O)N12 | inconclusive: 39.8 µM [inhibitor, partial curve] | 
Cc1csc(SCC(=O)Nc2sc3c(c2C#N)CCC3)n1 | inconclusive: 56.2 µM [inhibitor, partial curve] | 
Cc1ccc2c(c1)C(=O)C(=O)N2Cc1ccc(F)cc1 | inconclusive: 63.1 µM [inhibitor, partial curve, poor fit] | 

Compound | Potency | activity change, negative = inhibition
COc1ccc(OC)c(NC(=O)CSC2=C(C#N)C(c3ccco3)C3=C(CCCC3=O)N2)c1 (centres undefined) | inconclusive: 89.1 µM [inhibitor, partial curve] | 
Cc1cc(Cl)ccc1OCC(=O)NNC(=O)c1cccnc1 |  | inactive: -9.09%
COc1ccc(CNC(=O)CN2C(=O)CCSc3ccc(S(=O)(=O)N4CCCC4)cc32)cc1 |  | inactive: 3.76%
Cc1csc(Sc2ccc(C(=O)OCC(=O)Nc3ccc(F)cc3[N+](=O)[O-])cc2[N+](=O)[O-])n1 | inconclusive: 3.16 µM [inhibitor, full curve] | 
Brc1ccc2[nH]c3nc(SCCN4CCOCC4)nnc3c2c1 | active: 79.4 µM | 
CCOCCCNC(=O)CN1C(=O)COc2ccc(S(=O)(=O)N3CCCCCC3)cc21 | inconclusive: 3.55 µM [inhibitor, single point] | 
Cc1ccc(S(=O)(=O)N2CCCCC2)cc1C(=O)NCCN1CCOCC1 |  | inactive: 2.68%
COc1ccc(NC(=O)c2nc[nH]c2C(=O)N[C@@H](CC(C)C)C(=O)OC(C)(C)C)cc1 | inconclusive: 56.2 µM [inhibitor, partial curve] | 
Cc1ccc(-n2c(C)cc(C(=O)COc3c(CO)cc(F)cc3CO)c2C)cc1C | inconclusive: 44.7 µM [inhibitor, partial curve] | 
Cc1ccc(C2c3c(-c4cc(C)ccc4O)n[nH]c3C(=O)N2Cc2ccco2)cc1 (centres undefined) | inconclusive: 35.5 µM [inhibitor, partial curve] | 
Fc1ccc(OCc2nn3c(Cn4nnc5ccccc54)nnc3s2)cc1 | inconclusive: 89.1 µM [inhibitor, single point] | 
Cc1cccc(S(=O)(=O)NNC(=O)Cc2cccn2C)c1 | active: 39.8 µM | 
O=C(NCCCn1ccnc1)c1ccc(N2CCCCCC2)c([N+](=O)[O-])c1 |  | inconclusive: -48.6% [inhibitor]
CC(C)(C)C(=O)CC1(O)C(=O)N(Cc2ccc(Cl)cc2)c2ccccc21 (centres undefined) | inconclusive: 89.1 µM [inhibitor, partial curve] | 
Cc1occc1C(=O)N1CCN(C(c2ccccc2)c2ccccc2)CC1 | inconclusive: 79.4 µM [inhibitor, partial curve] | 
COc1ccc(C(=O)O/N=C(\N)c2ccccc2)cc1OC |  | inactive: -3.05%
Cc1ccc(NC(=O)NC(=O)CSc2nnc(-c3ccc(Cl)cc3Cl)n2N)c(C)c1 |  | inactive: -5.71%
COc1ccc(N2CCN(C(=O)CSc3nc4[nH]ncc4c(=O)n3-c3ccc(Br)cc3)CC2)cc1 | inconclusive: 15.8 µM [inhibitor, full curve] | 
O=S(=O)(Nc1cccc(-c2ccc(N3CCCCCC3)nn2)c1)c1ccc(F)cc1 | inconclusive: 100 µM [inhibitor, partial curve, poor fit] | 
COc1ccc(N2C(=O)CSC2c2ccc([N+](=O)[O-])cc2)cc1 (centres undefined) |  | inactive: -15.4%
Cc1ccccc1NS(=O)(=O)c1nnc(NC(=O)c2ccc(Cl)cc2)s1 |  | inactive: -16.3%
CCCCn1c(N)c(-c2nc3ccccc3s2)c2c([N+](=O)[O-])nn(CC)c(=O)c21 | inconclusive: 11.2 µM [inhibitor, partial curve] | 
CCc1ccccc1NC(=O)Cn1c(=O)n(CCCS(=O)(=O)C2CCCCC2)c(=O)c2ccccc21 |  | inactive: -17.5%

Compound | Potency | activity change, negative = inhibition
O=C(/C=C/c1cccs1)N1CCN(Cc2ccc3c(c2)OCO3)CC1 |  | inactive: -19%
CCOC(=O)c1c(C)[nH]c(CCC(=O)NCCCN2CCN(c3cc(Cl)ccc3C)CC2)c1C | inconclusive: 79.4 µM [inhibitor, partial curve] | 
O=C(NC(=S)NCc1ccccc1)c1cccc([N+](=O)[O-])c1 | inconclusive: 89.1 µM [inhibitor, single point] | 
COc1ccc(C(=O)N(Cc2ccc(N(C)C)cc2)Cc2ccco2)cc1Cl | active: 35.5 µM | 
O=C(CCCCCN1C(=O)c2ccccc2C1=O)NCc1ccccn1 | inconclusive: 79.4 µM [inhibitor, partial curve] | 
COc1ccc(C/C(C)=N/NC(=S)Nc2ccccc2F)cc1 | inconclusive: 3.16 µM [inhibitor, full curve, poor fit] | 
N#CC(C(=O)Nc1cccc(Cl)c1)=C1Nc2ccccc2N1 | inconclusive: 79.4 µM [inhibitor, partial curve] | 
C1=C(c2sc3ccccc3c2-c2ccc(OCCN3CCOCC3)cc2)CCCC1 | inconclusive: 39.8 µM [inhibitor, partial curve] | 
CC(C)NC(=S)NNc1nc2ccccc2s1 | active: 44.7 µM | 
CCNC(=S)N(CCc1c(C)[nH]c2ccc(F)cc12)Cc1cccnc1 | inconclusive: 44.7 µM [inhibitor, partial curve] | 
COc1cc(SC)ccc1C(=O)N1CCN(c2ccccc2F)CC1 | inconclusive: 50.1 µM [inhibitor, partial curve] | 
Oc1c(C(c2ccccn2)N2CCC(Cc3ccccc3)CC2)cc(Cl)c2cccnc12 (centres undefined) | active: 50.1 µM | 
CCOC(=O)c1ccc(N/N=C/c2cc(Br)cc([N+](=O)[O-])c2O)cc1 | active: 10 µM | 
CC1=C(C(=O)OC(C)C)C(c2ccccc2)NC(=O)N1C (centres undefined) |  | inactive: 3.65%
CC1(C)CC(=O)C2=C(C1)Nc1cc(Cl)ccc1S2 |  | inactive: -11.5%
O=C(C1=C[C@H](C2CCCCC2)C[C@H](OCc2ccc(CO)cc2)O1)N1CCN(Cc2ccccc2)CC1 | inconclusive: 56.2 µM [inhibitor, partial curve] | 
O=C(NNC(=O)c1cc2cc(Br)ccc2oc1=O)c1ccc(O)cc1O | inconclusive: 39.8 µM [inhibitor, partial curve] | 
O=C(N/N=C/c1ccncc1)c1cccc(N/N=C/c2ccncc2)c1 | inconclusive: 50.1 µM [inhibitor, partial curve] | 
O=C(Nc1ccccc1Cl)c1ccccc1Oc1ccc(C(F)(F)F)cc1[N+](=O)[O-] | active: 50.1 µM | 
Cc1c(Br)c([N+](=O)[O-])nn1CC(=O)Nc1ccc(Cc2ccncc2)cc1 |  | inactive: -30.9%
O=S(=O)(N/N=C/c1cccc(OC2CSC2)c1)c1ccccc1 |  | inactive: -23.1%
O=C(NN1CCOCC1)c1sc2cccc(F)c2c1Cl |  | inactive: -30.1%
Cn1cccc1CC(=O)N/N=C\c1c2ccccc2cc2ccccc12 | inconclusive: 44.7 µM [inhibitor, partial curve] | 
